{"source": "the supplement of paper PMC4604168 (melanoma cell lines)", "experiment_in_all_cases": "cell count relative to DMSO control; melanoma cells; higher = more viable cells", "settings_in_all_cases": "library dose: low library concentration; 72 h", "key": {"MZ2-MEL": {"test_system": "MZ2-MEL"}, "MeWo": {"test_system": "MeWo"}, "RPMI7951": {"test_system": "RPMI7951"}, "RVH-421": {"test_system": "RVH-421"}, "SkMel28": {"test_system": "SkMel28"}, "SkMel2": {"test_system": "SkMel2"}, "SkMel30": {"test_system": "SkMel30"}, "SkMel5": {"test_system": "SkMel5"}, "UACC257": {"test_system": "UACC257"}, "UACC62": {"test_system": "UACC62"}}, "note": "The list shows a part of the results. Single values are uncertain, as repeats are few or missing.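 Also: cell number obtained by counting DAPI-stained nuclei in high-throughput microscope images with image analysis software, screen run in 1,536-well plates.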", "data": [{"smiles": "COc1ccc(C2=N[C@@H](c3ccc(Cl)cc3)[C@@H](c3ccc(Cl)cc3)N2C(=O)N2CCNC(=O)C2)c(OC(C)C)c1", "note": "[Nutlin-3] + COc1cc(Nc2ncc(F)c(Nc3ccc4c(n3)NC(=O)C(C)(C)O4)n2)cc(OC)c1OC [Tamatinib] (first compound 0.1 µM, partner dose 0.4 µM)", "values": [{"measurement": "cell count", "setting": "MZ2-MEL", "result": 92, "unit": "%"}, {"measurement": "cell count", "setting": "MeWo", "result": 96.2, "unit": "%"}, {"measurement": "cell count", "setting": "RPMI7951", "result": 97.3, "unit": "%"}, {"measurement": "cell count", "setting": "RVH-421", "result": 70.2, "unit": "%"}, {"measurement": "cell count", "setting": "SkMel28", "result": 71.5, "unit": "%"}, {"measurement": "cell count", "setting": "SkMel2", "result": 92, "unit": "%"}, {"measurement": "cell count", "setting": "SkMel30", "result": 69.4, "unit": "%"}, {"measurement": "cell count", "setting": "SkMel5", "result": 81.1, "unit": "%"}, {"measurement": "cell count", "setting": "UACC257", "result": 53.6, "unit": "%"}, {"measurement": "cell count", "setting": "UACC62", "result": 76.6, "unit": "%"}]}, {"smiles": "Cc1cc(Nc2cc(N3CCN(C)CC3)nc(/C=C/c3ccccc3)n2)n[nH]1", "note": "+ C[C@@H]1CCN(C(=O)CC#N)C[C@@H]1N(C)c1ncnc2[nH]ccc12 [CP690550] (first compound 0.04 µM, partner dose 1 µM)", "values": [{"measurement": "cell count", "setting": "MZ2-MEL", "result": 103, "unit": "%"}, {"measurement": "cell count", "setting": "MeWo", "result": 94.7, "unit": "%"}, {"measurement": "cell count", "setting": "RPMI7951", "result": 120, "unit": "%"}, {"measurement": "cell count", "setting": "RVH-421", "result": 90.1, "unit": "%"}, {"measurement": "cell count", "setting": "SkMel28", "result": 92.3, "unit": "%"}, {"measurement": "cell count", "setting": "SkMel2", "result": 90.8, "unit": "%"}, {"measurement": "cell count", "setting": "SkMel30", "result": 97.3, "unit": "%"}, {"measurement": "cell count", "setting": "SkMel5", "result": 108, "unit": "%"}, {"measurement": "cell count", "setting": "UACC257", "result": 114, "unit": "%"}, {"measurement": "cell count", "setting": "UACC62", "result": 89.2, "unit": "%"}]}, {"smiles": "Cn1c(=O)n(-c2ccc(C(C)(C)C#N)cc2)c2c3cc(-c4cnc5ccccc5c4)ccc3ncc21", "note": "+ O=S(=O)(c1ccccc1)N(CC(F)(F)F)c1ccc(C(O)(C(F)(F)F)C(F)(F)F)cc1 [T0901317] (first compound 0.004 µM, partner dose 1.4 µM)", "values": [{"measurement": "cell count", "setting": "MZ2-MEL", "result": 101, "unit": "%"}, {"measurement": "cell count", "setting": "MeWo", "result": 74.7, "unit": "%"}, {"measurement": "cell count", "setting": "RPMI7951", "result": 79.9, "unit": "%"}, {"measurement": "cell count", "setting": "RVH-421", "result": 60.1, "unit": "%"}, {"measurement": "cell count", "setting": "SkMel28", "result": 76.7, "unit": "%"}, {"measurement": "cell count", "setting": "SkMel2", "result": 86.1, "unit": "%"}, {"measurement": "cell count", "setting": "SkMel30", "result": 69.9, "unit": "%"}, {"measurement": "cell count", "setting": "SkMel5", "result": 98.3, "unit": "%"}, {"measurement": "cell count", "setting": "UACC257", "result": 80.7, "unit": "%"}, {"measurement": "cell count", "setting": "UACC62", "result": 76.2, "unit": "%"}]}, {"smiles": "Cn1c(=O)n(-c2ccc(C(C)(C)C#N)cc2)c2c3cc(-c4cnc5ccccc5c4)ccc3ncc21", "note": "+ O=C(O)C(=O)Nc1sc2c(c1C(=O)O)CCNC2 [TCS401] (first compound 0.004 µM, partner dose 1.66667 µM)", "values": [{"measurement": "cell count", "setting": "MZ2-MEL", "result": 109, "unit": "%"}, {"measurement": "cell count", "setting": "MeWo", "result": 89.2, "unit": "%"}, {"measurement": "cell count", "setting": "RPMI7951", "result": 105, "unit": "%"}, {"measurement": "cell count", "setting": "RVH-421", "result": 85.1, "unit": "%"}, {"measurement": "cell count", "setting": "SkMel28", "result": 84.6, "unit": "%"}, {"measurement": "cell count", "setting": "SkMel2", "result": 90.1, "unit": "%"}, {"measurement": "cell count", "setting": "SkMel30", "result": 94.6, "unit": "%"}, {"measurement": "cell count", "setting": "SkMel5", "result": 107, "unit": "%"}, {"measurement": "cell count", "setting": "UACC257", "result": 95.2, "unit": "%"}, {"measurement": "cell count", "setting": "UACC62", "result": 80.6, "unit": "%"}]}, {"smiles": "Cc1cn(-c2cc(NC(=O)c3ccc(C)c(Nc4nccc(-c5cccnc5)n4)c3)cc(C(F)(F)F)c2)cn1", "note": "[nilotinib] + O=C(O)C(=O)Nc1sc2c(c1C(=O)O)CCNC2 [TCS401] (first compound 0.2 µM, partner dose 1.66667 µM)", "values": [{"measurement": "cell count", "setting": "MZ2-MEL", "result": 101, "unit": "%"}, {"measurement": "cell count", "setting": "MeWo", "result": 76.3, "unit": "%"}, {"measurement": "cell count", "setting": "RPMI7951", "result": 96.8, "unit": "%"}, {"measurement": "cell count", "setting": "RVH-421", "result": 85.1, "unit": "%"}, {"measurement": "cell count", "setting": "SkMel28", "result": 112, "unit": "%"}, {"measurement": "cell count", "setting": "SkMel2", "result": 101, "unit": "%"}, {"measurement": "cell count", "setting": "SkMel30", "result": 91.1, "unit": "%"}, {"measurement": "cell count", "setting": "SkMel5", "result": 87.9, "unit": "%"}, {"measurement": "cell count", "setting": "UACC257", "result": 75, "unit": "%"}, {"measurement": "cell count", "setting": "UACC62", "result": 111, "unit": "%"}]}, {"smiles": "CC(C)C[C@H](NC(=O)[C@H](Cc1ccccc1)NC(=O)c1cnccn1)B(O)O", "note": "[Bortezomib] + COc1cc2ncnc(Nc3ccc(Oc4ccccc4)cc3)c2cc1OC [SrcI1] (first compound 0.001 µM, partner dose 2 µM)", "values": [{"measurement": "cell count", "setting": "MZ2-MEL", "result": 55.1, "unit": "%"}, {"measurement": "cell count", "setting": "MeWo", "result": 93.6, "unit": "%"}, {"measurement": "cell count", "setting": "RPMI7951", "result": 85.4, "unit": "%"}, {"measurement": "cell count", "setting": "RVH-421", "result": 30.9, "unit": "%"}, {"measurement": "cell count", "setting": "SkMel28", "result": 87.5, "unit": "%"}, {"measurement": "cell count", "setting": "SkMel2", "result": 96.4, "unit": "%"}, {"measurement": "cell count", "setting": "SkMel30", "result": 76.9, "unit": "%"}, {"measurement": "cell count", "setting": "SkMel5", "result": 110, "unit": "%"}, {"measurement": "cell count", "setting": "UACC257", "result": 68.3, "unit": "%"}, {"measurement": "cell count", "setting": "UACC62", "result": 73.8, "unit": "%"}]}, {"smiles": "Cc1cc(Nc2cc(N3CCN(C)CC3)nc(/C=C/c3ccccc3)n2)n[nH]1", "note": "+ Cn1cc(/C=C2\\C(=O)Nc3cccnc32)c2ccccc21 [GW441756] (first compound 0.04 µM, partner dose 0.4 µM)", "values": [{"measurement": "cell count", "setting": "MZ2-MEL", "result": 97.2, "unit": "%"}, {"measurement": "cell count", "setting": "MeWo", "result": 96.6, "unit": "%"}, {"measurement": "cell count", "setting": "RPMI7951", "result": 93.7, "unit": "%"}, {"measurement": "cell count", "setting": "RVH-421", "result": 84.3, "unit": "%"}, {"measurement": "cell count", "setting": "SkMel28", "result": 91.7, "unit": "%"}, {"measurement": "cell count", "setting": "SkMel2", "result": 103, "unit": "%"}, {"measurement": "cell count", "setting": "SkMel30", "result": 85.2, "unit": "%"}, {"measurement": "cell count", "setting": "SkMel5", "result": 81.1, "unit": "%"}, {"measurement": "cell count", "setting": "UACC257", "result": 86.8, "unit": "%"}, {"measurement": "cell count", "setting": "UACC62", "result": 107, "unit": "%"}]}, {"smiles": "Cc1cc(Nc2cc(N3CCN(C)CC3)nc(/C=C/c3ccccc3)n2)n[nH]1", "note": "+ CC(C)CCN1c2nc(Nc3cc(F)c(O)c(F)c3)ncc2N(C)C(=O)C1C [BID1870] (first compound 0.04 µM, partner dose 0.2 µM)", "values": [{"measurement": "cell count", "setting": "MZ2-MEL", "result": 101, "unit": "%"}, {"measurement": "cell count", "setting": "MeWo", "result": 86.9, "unit": "%"}, {"measurement": "cell count", "setting": "RPMI7951", "result": 98.9, "unit": "%"}, {"measurement": "cell count", "setting": "RVH-421", "result": 78.9, "unit": "%"}, {"measurement": "cell count", "setting": "SkMel28", "result": 85.6, "unit": "%"}, {"measurement": "cell count", "setting": "SkMel2", "result": 91.1, "unit": "%"}, {"measurement": "cell count", "setting": "SkMel30", "result": 89.4, "unit": "%"}, {"measurement": "cell count", "setting": "SkMel5", "result": 105, "unit": "%"}, {"measurement": "cell count", "setting": "UACC257", "result": 80.6, "unit": "%"}, {"measurement": "cell count", "setting": "UACC62", "result": 79.3, "unit": "%"}]}, {"smiles": "COc1ccc(C2=N[C@@H](c3ccc(Cl)cc3)[C@@H](c3ccc(Cl)cc3)N2C(=O)N2CCNC(=O)C2)c(OC(C)C)c1", "note": "[Nutlin-3] + O=S(=O)(c1ccccc1)N(CC(F)(F)F)c1ccc(C(O)(C(F)(F)F)C(F)(F)F)cc1 [T0901317] (first compound 0.1 µM, partner dose 1.4 µM)", "values": [{"measurement": "cell count", "setting": "MZ2-MEL", "result": 88.9, "unit": "%"}, {"measurement": "cell count", "setting": "MeWo", "result": 97.5, "unit": "%"}, {"measurement": "cell count", "setting": "RPMI7951", "result": 84.3, "unit": "%"}, {"measurement": "cell count", "setting": "RVH-421", "result": 58.4, "unit": "%"}, {"measurement": "cell count", "setting": "SkMel28", "result": 89.3, "unit": "%"}, {"measurement": "cell count", "setting": "SkMel2", "result": 101, "unit": "%"}, {"measurement": "cell count", "setting": "SkMel30", "result": 97.2, "unit": "%"}, {"measurement": "cell count", "setting": "SkMel5", "result": 83, "unit": "%"}, {"measurement": "cell count", "setting": "UACC257", "result": 105, "unit": "%"}, {"measurement": "cell count", "setting": "UACC62", "result": 84.1, "unit": "%"}]}, {"smiles": "Cc1cn(-c2cc(NC(=O)c3ccc(C)c(Nc4nccc(-c5cccnc5)n4)c3)cc(C(F)(F)F)c2)cn1", "note": "[nilotinib] + O=C(O)c1ccc(-c2c[nH]c3ncc(-c4ccccc4)cc23)cc1C1CCCC1 [GSK650394] (first compound 0.2 µM, partner dose 0.16 µM)", "values": [{"measurement": "cell count", "setting": "MZ2-MEL", "result": 105, "unit": "%"}, {"measurement": "cell count", "setting": "MeWo", "result": 101, "unit": "%"}, {"measurement": "cell count", "setting": "RPMI7951", "result": 97, "unit": "%"}, {"measurement": "cell count", "setting": "RVH-421", "result": 109, "unit": "%"}, {"measurement": "cell count", "setting": "SkMel28", "result": 87.7, "unit": "%"}, {"measurement": "cell count", "setting": "SkMel2", "result": 107, "unit": "%"}, {"measurement": "cell count", "setting": "SkMel30", "result": 106, "unit": "%"}, {"measurement": "cell count", "setting": "SkMel5", "result": 98.4, "unit": "%"}, {"measurement": "cell count", "setting": "UACC257", "result": 82.5, "unit": "%"}, {"measurement": "cell count", "setting": "UACC62", "result": 93.6, "unit": "%"}]}]}
